# Test results taken from the supplement of paper PMC3334620.
# The full ranking holds about 33,000 sequences; the median of “E-score (-0.5 to 0.5)” is about -0.01, and the highest 2% start at about 0.26. The list shows a part of the results.
# Biological target: Ste12 (UniProt P13574)
# Assay: PBM E-score (8-mer binding enrichment) (E-score (-0.5 to 0.5)); higher = stronger / more preferred TF binding; most listed sequences are background and not binding sites
# Settings: protein concentration: 200 nM; construct: GST-DNA-binding domain
# Procedure, shortened: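 The E-score, a modified Wilcoxon-Mann-Whitney statistic, was computed by the Universal PBM Analysis Suite for every ungapped eight-base word pooled with its reverse complement. Scans behind it were normalised with masliner after bound GST-tagged yeast transcription factors were detected with fluorescent anti-GST. The proteins, at about 100-200 nM, had been applied to universal all-10-mer Agilent arrays made double-stranded by primer extension.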
row,Sequence,PBM E-score
1,AGGGGCTG,-0.0133
2,ATTTCTTC,0.197
3,ACTCATGG,0.0624
4,GCCTGTTA,0.00489
5,AGATGAAG,0.102
6,GGCAACCA,0.00348
7,GCCGCCAC,-0.165
8,CTGCAAAG,-0.182
9,GGGGAGCA,-0.0606
10,AACCGGAG,-0.0395
11,ATGGTTAG,0.0246
12,CTCCACAC,-0.0639
13,GCAAATCC,0.0928
14,AGCATCCA,-0.0732
15,CGGTAATC,-0.00049
16,CTATCCTA,-0.0599
17,GGCTAGAC,-0.282
18,CGGCAACG,-0.198
19,CAGCTAAG,-0.282
20,CTGAAGTA,0.00063
21,ACAACGTG,-0.123
22,CCAGTTAG,-0.183
23,CTGCCCAG,-0.235
24,CTGCTTAA,0.0206
25,AAATACCC,0.127

row,Sequence,PBM E-score
1,TATGGCAA,-0.0727
2,CCTATCTC,-0.0405
3,CTGGAGCA,-0.15
4,GACGGCTC,-0.225
5,AGCGACAA,-0.05
6,AAGGTTTG,0.0426
7,CTTCTGCC,-0.122
8,GTTTGGCA,-0.161
9,AAGCTTGT,0.0524
10,GCCGTCAA,-0.128
11,CGAGCTTA,-0.133
12,CCTGATCC,-0.121
13,AAGTTCGA,0.0302
14,ATGGAGGC,0.00738
15,CATACAGA,0.0517
16,ATGCCTGC,0.0448
17,CTACGTAA,-0.0603
18,CCAAGCTC,-0.0202
19,CACAATAA,0.0136
20,CAGTATTC,-0.0651
21,TGTGCCAA,0.0192
22,GCCAAACA,0.00409
23,CCTGACAG,0.01
24,GCCGCACC,0.00805
25,ACAAATTC,0.127

row,Sequence,PBM E-score
1,CAATCGGC,-0.114
2,AGTCAACT,-0.0152
3,CTAGTGCA,-0.0737
4,CTGTACGC,-0.169
5,GCCGAAAA,0.148
6,CTATCGAC,-0.104
7,ACAGTACT,-0.0965
8,CTCCCGTC,0.0578
9,AGGGCTCA,-0.0959
10,AATCGGGA,0.06
11,GCTCGGCC,-0.144
12,GCAAAGCA,-0.148
13,TAGAGCAA,-0.13
14,ATTCGAAG,-0.0567
15,AGCTAAAA,0.0939
16,ATGGCATG,0.00737
17,TCTTTACA,0.18
18,CATTTTAG,0.267
19,CGCTCCAC,-0.168
20,ACAGCCTC,-0.0599
21,CCCTTCAC,-0.0106
22,GGTTCGTA,0.105
23,CTGCCGTA,-0.0935
24,GCACCATA,0.0607
25,TATCACAA,0.0811

row,Sequence,PBM E-score
1,CTTTTGTC,-0.0993
2,GGTACTCA,0.0166
3,ATAGCGAT,0.00738
4,GGTCGAAA,0.0102
5,GACCCTAC,-0.143
6,AGGGCCTC,-0.208
7,CGCGGTAA,0.0922
8,AAGGCTGT,-0.111
9,AGGGCGGA,-0.248
10,ACCAAGTG,-0.146
11,AGGGACTC,-0.236
12,TAACGATA,0.138
13,CGTGTCCA,-0.139
14,AGAACCTG,-0.0635
15,ATGTCGTA,-0.223
16,GATTAAAC,0.163
17,TATGCCGA,0.033
18,AATGGTGT,0.198
19,ATATTTCC,0.191
20,CCTGTCCC,-0.147
21,CAGCTCAG,-0.13
22,TGATCGAA,0.0482
23,GTCGGCGA,-0.067
24,ATTTATCG,0.122
25,CGAGTGCC,-0.147

row,Sequence,PBM E-score
1,AACAAGGA,0.0952
2,GGAGCTCC,0.0101
3,CCTGGGCG,-0.153
4,ACGGAAAC,0.0829
5,ACCTGGCC,-0.0394
6,CATATACG,-0.0278
7,ACCGTTAA,-0.0702
8,GAGTTTGA,0.0997
9,CACGATAA,0.241
10,CATGCCGC,0.0464
11,CGTTCATA,0.031
12,CAACCTGA,0.0598
13,GATCGCGC,0.0163
14,TCCCTAGA,-0.0265
15,GGTCGGCA,-0.124
16,AAGAGGCT,-0.244
17,ACATCTTC,0.261
18,GAACCCCA,0.0411
19,CGACTAAC,-0.163
20,AGGTTGTG,-0.108
21,ATGGCCGC,-0.0598
22,CACGTAGA,0.0937
23,CGTTTGGC,-0.0549
24,ACCGATGA,0.0108
25,ATACAACC,0.043

row,Sequence,PBM E-score
1,CCCATTCA,0.143
2,ACTTGAAA,0.314
3,TGAAATCA,0.13
4,CCGGGTCA,0.0537
5,CAGAAAGA,0.0987
6,CACATTTA,0.084
7,CCTAGCTA,-0.202
8,GCATACTA,-0.0607
9,CCTACCAG,-0.0291
10,CTCTCGAC,-0.245
11,GCGATTCA,0.0308
12,AGCTGATC,0.0736
13,AAAACATG,0.324
14,CAGTTACA,0.0929
15,ACGCTCAG,-0.0524
16,GCAGGGCA,-0.147
17,AGCATAAT,0.153
18,GCCCTCTA,-0.139
19,GCCAGTCA,0.0126
20,ACTCAGTC,-0.0437
21,CGATGACG,-0.259
22,GCAAGAGC,-0.0662
23,GAATCCCC,-0.00136
24,CACATCCG,-0.00707
25,AAGGACCT,-0.0446

row,Sequence,PBM E-score
1,CGGTTAAG,-0.0649
2,AGTGAATC,-0.0865
3,CCGATCTC,-0.136
4,CGGTACAG,-0.0316
5,CAACGATC,-0.00727
6,TCAACGGA,0.0189
7,TAGTGGCA,-0.066
8,AAAGGCAG,0.0859
9,AGTCGAGA,-0.104
10,ATCATCGA,0.0173
11,TACGCAAA,-0.0817
12,ATAGAACG,0.0923
13,ATGACTAG,-0.183
14,AGGAGCGA,0.0152
15,ATTGGTCA,0.136
16,ATCCGGCA,-0.0625
17,AATTAGAC,0.227
18,CACTGTGA,0.193
19,CTCTTGAA,-0.0612
20,CGACGGGA,0.0944
21,AGTAGTAA,0.0453
22,AGATATCG,-0.114
